Experimental data taken from the supplement of paper PMC9174493.
The other results are listed elsewhere or left out. Single values of this set are uncertain. Values with irradiation are relative to irradiated vehicle.

System: A549-Dual
Assay: ISRE reporter (Lucia luciferase) activity, viability-corrected, relative to vehicle (fold change vs vehicle); higher = more activation of STING-IRF / NF-kB immune response reporter
Conditions: 10 µM; irradiation: 8 Gy/4 fr

Structure (SMILES)	ISRE reporter
CC1=C(CC(=O)O)c2cc(F)ccc2/C1=C\c1ccc(S(C)=O)cc1 (stereo not given) [Sulindac]	1.02
C1N2CN3CN1CN(C2)C3 [Methenamine]	1.07
COc1ccc2cc(C(C)C(=O)[O-])ccc2c1.[Na+] (stereo not given) [Naproxen Sodium]	0.954
Cc1ccc(Cl)c(Nc2ccccc2C(=O)[O][Na])c1Cl [Meclofenamate Sodium]	1.1
O=C(OCCOCCO)c1ccccc1Nc1cccc(C(F)(F)F)c1 [Etofenamate]	0.644
O=C([O-])c1cc(N=Nc2ccc(O)c(C(=O)[O-])c2)ccc1O.[Na+].[Na+] [Olsalazine Sodium]	0.617
CC(=O)Nc1ccc(OC(=O)c2ccccc2OC(C)=O)cc1 [Benorylate]	0.774
CO/N=C(\C(=O)NC1C(=O)N2C(C(=O)OCOC(=O)C(C)(C)C)=C(C)CSC12)c1csc(N)n1.Cl (stereo not given) [Cefetamet pivoxil hydrochloride]	0.885
CCC(C(=O)O)c1ccc(N2Cc3ccccc3C2=O)cc1 (stereo not given) [Indobufen]	1.09
CS(=O)(=O)O.Cc1ccc(NC(=O)c2ccc(CN3CCN(C)CC3)cc2)cc1Nc1nccc(-c2cccnc2)n1 [Imatinib Mesylate (STI571)]	0.874
CC(C(=O)O)c1ccc(C(=O)c2ccccc2)s1 (stereo not given) [Tiaprofenic acid]	1.17
CCc1nc(N)nc(N)c1-c1ccc(Cl)cc1 [Pyrimethamine]	0.134
COc1cc(C2c3cc4c(cc3C(OC3OC5COC(C)OC5C(O)C3O)C3COC(=O)C23)OCO4)cc(OC)c1O (stereo not given) [Etoposide]	0.484
CN(C)CCC(c1ccc(Br)cc1)c1ccccn1.O=C(O)/C=C\C(=O)O (stereo not given) [Brompheniramine hydrogen maleate]	1.1
CC12CCC3c4ccc(O)cc4CC(CCCCCCCCCS(=O)CCCC(F)(F)C(F)(F)F)C3C1CCC2O (stereo not given) [Fulvestrant]	0.804
O=C([O-])CC(O)(CC(=O)[O-])C(=O)[O-].O=C([O-])CC(O)(CC(=O)[O-])C(=O)[O-].[BiH6+3].[K+].[K+].[K+] [Gastrodenol]	1.29
CCCCC1(COC(=O)CCC(=O)O)C(=O)N(c2ccccc2)N(c2ccccc2)C1=O [Suxibuzone]	1.13
O=C(O)Cc1ccccc1Nc1c(Cl)cccc1Cl.OCCN1CCCC1 [Diclofenac Epolamine]	0.491
Cl.N=C1CCCN1Cc1[nH]c(=O)[nH]c(=O)c1Cl.O=c1[nH]c(=O)n(C2CC(O)C(CO)O2)cc1C(F)(F)F.O=c1[nH]c(=O)n(C2CC(O)C(CO)O2)cc1C(F)(F)F (stereo not given)	0.54
NC(CO)(CO)CO [Trometamol]	0.914

Structure (SMILES)	ISRE reporter
COc1ccc2c(c1)c(CC(=O)O)c(C)n2C(=O)c1ccc(Cl)cc1 [Indomethacin]	1.23
Cn1cnc([N+](=O)[O-])c1Sc1ncnc2nc[nH]c12 [Azathioprine]	0.444
NCCNc1ccc(NCCN)c2c1C(=O)c1ccncc1C2=O.O=C(O)/C=C\C(=O)O.O=C(O)/C=C\C(=O)O [Pixantrone Maleate]	0.613
CC(=O)Oc1cccc2c1C(=O)c1c(OC(C)=O)cc(C(=O)O)cc1C2=O [Diacerein]	0.852
CNCC(O)c1ccc(O)c(O)c1.O=C(O)C(O)C(O)C(=O)O (stereo not given) [Epinephrine bitartrate]	1.18
CC1(C(=O)O)CCC2(C)CCC3(C)C(=CC(=O)C4C5(C)CCC(OC6OC(C(=O)O)C(O)C(O)C6OC6OC(C(=O)O)C(O)C(O)C6O)C(C)(C)C5CCC43C)C2C1.N.N (stereo not given) [Diammonium Glycyrrhizinate]	0.899
CCCCCCCCCCCCCCCCCCOP(=O)([O-])OC1CC[N+](C)(C)CC1 [Perifosine (KRX-0401)]	0.58
COc1c2occc2cc2ccc(=O)oc12 [Methoxsalen]	0.784
O=C(O)CCCN1CCC(OC(c2ccc(Cl)cc2)c2ccccn2)CC1 (stereo not given) [Bepotastine]	1.12
CN(C)CCCOc1nn(Cc2ccccc2)c2ccccc12.Cl [Benzydamine HCl]	0.965
CC(C(=O)O)c1ccc2c(c1)[nH]c1ccc(Cl)cc12 (stereo not given) [Carprofen]	0.755
COc1cc2nccc(Oc3ccc(NC(=O)Nc4cc(C)on4)c(Cl)c3)c2cc1OC [Tivozanib (AV-951)]	0.53
Oc1ccc(/C=C/c2cc(O)cc(O)c2)cc1 [Resveratrol]	0.588
Nc1cccc2c1C(=O)N(C1CCC(=O)NC1=O)C2=O (stereo not given) [Pomalidomide]	0.936
COc1cc(C2c3cc4c(cc3C(OC3OC5COC(c6cccs6)OC5C(O)C3O)C3COC(=O)C23)OCO4)cc(OC)c1O (stereo not given) [Teniposide]	0.406
S=c1nc[nH]c2nc[nH]c12 [Mercaptopurine (6-MP)]	0.677
CC(C(=O)O)c1ccc2c(c1)CC(=O)c1ccccc1S2 (stereo not given) [Zaltoprofen]	0.849
Cc1nc(Nc2ncc(C(=O)Nc3c(C)cccc3Cl)s2)cc(N2CCN(CCO)CC2)n1.Cl [Dasatinib hydrochloride]	0.181
O=c1[nH]cc(F)c(=O)[nH]1 [Fluorouracil (5-Fluoracil, 5-FU)]	0.606
COc1cc(/C=C/C(=O)/C=C(O)/C=C/c2ccc(O)c(OC)c2)ccc1O [Curcumin]	0.759
